# Experimental data reported in the supplement of paper PMC8728848.
# The list shows a part of the results.
# B1: GS7807P-bth-537-23-537 (Bacteroides thetaiotaomicron) (protein)
# chain: NYENINSNPYEAPDLSADGYALGSAMNNLAGCVVSPDVNTAQFTDCLLGGPLGGYFADSNAGFTETISNFNPKDDWSRVFLKSDKIIPTLYSNLTQVKLVSQNTNDPVPYAIAQVIKVAAMHRVTDAFGPIPYSQIGANGEIATPYDSQEVTYNTFFDELNAAIATLNENSNEQLVPTADYIYKGDVKKWIRFANSLKLRLAIRIAYANPVKAQQMAEEAVNPANGGVIESNADNATWNYFETSQNPIYVATRYNQVQTSDHGGVPCLTGGDTHAAADIICYMNGYKDNRREKFFTKSEWAGQDYVGMRRGIVIPELKTTGHKYSGVNIAPTSPLYWMNAAEVAFLRAEGQAVFNFSMGGTAESFYNQGIRLSFEQWGADGVEDYLKDDVNKPTAYTDPAGTNTYQNALSNITIKWNDSADKEEKQERIIVQKWIANWQLGNEAWADFRRTGYPKLIPVKENKSGGVVDSEKGARRMPYPLDEFVSNKANVEYAIANYLHGADNMATDVWWASKK
# How the values were obtained:
# Experiment in all cases: glycan array binding signal (z-score within array); higher = stronger binding
# Settings in all cases: glycan notation: IUPAC condensed, linker removed
# [1] = target: Gal(b1-4)GlcNAc(b1-3)Gal(b1-4)GlcNAc(b1-6)[Gal(b1-3)]GalNAc
# Outline: (§1)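 Glycan array binding is given as a within-array Z-score, which can be read as non-binding when negative. The arrays, 3228 of them, came from the Consortium for Functional Glycomics database and were retained only where the protein sequence was available. Z-scores were averaged across arrays of the same protein sequence at different concentrations or buffers and across linkers.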
# [2] = target: Gal(b1-4)GlcNAc(b1-3)Gal(b1-4)[Fuc(a1-3)]GlcNAc(b1-3)Gal(b1-4)[Fuc(a1-3)]GlcNAc
# Outline: as §1
# [3] = target: Gal(b1-4)GlcNAc(b1-3)GalNAc
# Outline: as §1
# [4] = target: Gal(b1-4)GlcNAc(b1-3)[Fuc(a1-3)GlcNAc(b1-6)]Gal(b1-4)Glc
# Outline: as §1
# [5] = target: Gal(b1-4)GlcNAc(b1-3)[Gal(b1-4)GlcNAc(b1-6)]Gal(b1-4)GlcNAc
# Outline: as §1
# [6] = target: Gal(b1-4)GlcNAc(b1-3)[GlcNAc(b1-6)]Gal(b1-4)GlcNAc
# Outline: as §1
# [7] = target: Gal(b1-4)GlcNAc(b1-6)Gal(b1-4)GlcNAc
# Outline: as §1
# [8] = target: Gal(b1-4)GlcNAc(b1-6)GalNAc
# Outline: as §1
# [9] = target: Gal(b1-4)GlcNAc(b1-6)[Gal(b1-3)]GalNAc
# Outline: as §1
# [10] = target: Gal(b1-4)GlcNAc(b1-6)[Gal(b1-4)GlcNAc(b1-3)]GalNAc
# Outline: as §1
# Gal(b1-4)GlcNAc6P = target: Gal(b1-4)GlcNAc6P
# Outline: as §1
# Gal(b1-6)Gal = target: Gal(b1-6)Gal
# Outline: as §1
# Gal3S(b1-3)GalNAc = target: Gal3S(b1-3)GalNAc
# Outline: as §1
# Gal3S(b1-3)GlcNAc = target: Gal3S(b1-3)GlcNAc
# Outline: as §1
# [11] = target: Gal3S(b1-3)[Fuc(a1-4)]GlcNAc
# Outline: as §1
# Gal3S(b1-4)Glc = target: Gal3S(b1-4)Glc
# Outline: as §1
# Gal3S(b1-4)Glc6S = target: Gal3S(b1-4)Glc6S
# Outline: as §1
# Gal3S(b1-4)GlcNAc = target: Gal3S(b1-4)GlcNAc
# Outline: as §1
# [12] = target: Gal3S(b1-4)[Fuc(a1-3)]Glc6S
# Outline: as §1
# [13] = target: Gal3S(b1-4)[Fuc(a1-3)]GlcNAc
# Outline: as §1
# [14] = target: Gal3S(b1-4)[Fuc(a1-3)]GlcNAc6S
# Outline: as §1
# Gal3S4S(b1-4)GlcNAc = target: Gal3S4S(b1-4)GlcNAc
# Outline: as §1
# Gal3S6S(b1-4)GlcNAc = target: Gal3S6S(b1-4)GlcNAc
# Outline: as §1
# Gal3S6S(b1-4)GlcNAc6S = target: Gal3S6S(b1-4)GlcNAc6S
# Outline: as §1
# Gal4S(b1-4)GlcNAc = target: Gal4S(b1-4)GlcNAc
# Outline: as §1
# Gal4S6S(b1-4)GlcNAc = target: Gal4S6S(b1-4)GlcNAc
# Outline: as §1
# Gal6P(b1-4)GlcNAc = target: Gal6P(b1-4)GlcNAc
# Outline: as §1
# Gal6S(b1-3)GlcNAc = target: Gal6S(b1-3)GlcNAc
# Outline: as §1
# Gal6S(b1-3)GlcNAc6S = target: Gal6S(b1-3)GlcNAc6S
# Outline: as §1
# Gal6S(b1-4)Glc = target: Gal6S(b1-4)Glc
# Outline: as §1
# Gal6S(b1-4)Glc6S = target: Gal6S(b1-4)Glc6S
# Outline: as §1
# Gal6S(b1-4)GlcNAc = target: Gal6S(b1-4)GlcNAc
# Outline: as §1
# Gal6S(b1-4)GlcNAc6S = target: Gal6S(b1-4)GlcNAc6S
# Outline: as §1
# GalNAc(a1-3)Gal = target: GalNAc(a1-3)Gal
# Outline: as §1
# GalNAc(a1-3)GalNAc = target: GalNAc(a1-3)GalNAc
# Outline: as §1
# [15] = target: GalNAc(a1-3)GalNAc(b1-3)Gal(a1-4)Gal(b1-4)Glc
# Outline: as §1
# [16] = target: GalNAc(a1-3)GalNAc(b1-3)Gal(a1-4)Gal(b1-4)GlcNAc
# Outline: as §1
binder,measurement,setting,value
B1,glycan array binding signal (z-score),[1],-0.003
same,glycan array binding signal (z-score),[2],0.943
same,glycan array binding signal (z-score),[3],-0.134
same,glycan array binding signal (z-score),[4],-0.071
same,glycan array binding signal (z-score),[5],1.04
same,glycan array binding signal (z-score),[6],-0.363
same,glycan array binding signal (z-score),[7],0.117
same,glycan array binding signal (z-score),[8],1.13
same,glycan array binding signal (z-score),[9],0.146
same,glycan array binding signal (z-score),[10],0.118
same,glycan array binding signal (z-score),Gal(b1-4)GlcNAc6P,-0.182
same,glycan array binding signal (z-score),Gal(b1-6)Gal,-0.262
same,glycan array binding signal (z-score),Gal3S(b1-3)GalNAc,-0.351
same,glycan array binding signal (z-score),Gal3S(b1-3)GlcNAc,-0.379
same,glycan array binding signal (z-score),[11],-0.332
same,glycan array binding signal (z-score),Gal3S(b1-4)Glc,-0.348
same,glycan array binding signal (z-score),Gal3S(b1-4)Glc6S,-0.367
same,glycan array binding signal (z-score),Gal3S(b1-4)GlcNAc,-0.294
same,glycan array binding signal (z-score),[12],0.672
same,glycan array binding signal (z-score),[13],-0.324
same,glycan array binding signal (z-score),[14],-0.244
same,glycan array binding signal (z-score),Gal3S4S(b1-4)GlcNAc,-0.363
same,glycan array binding signal (z-score),Gal3S6S(b1-4)GlcNAc,0.325
same,glycan array binding signal (z-score),Gal3S6S(b1-4)GlcNAc6S,-0.311
same,glycan array binding signal (z-score),Gal4S(b1-4)GlcNAc,-0.373
same,glycan array binding signal (z-score),Gal4S6S(b1-4)GlcNAc,-0.308
same,glycan array binding signal (z-score),Gal6P(b1-4)GlcNAc,-0.369
same,glycan array binding signal (z-score),Gal6S(b1-3)GlcNAc,0.113
same,glycan array binding signal (z-score),Gal6S(b1-3)GlcNAc6S,-0.286
same,glycan array binding signal (z-score),Gal6S(b1-4)Glc,1.01
same,glycan array binding signal (z-score),Gal6S(b1-4)Glc6S,2.21
same,glycan array binding signal (z-score),Gal6S(b1-4)GlcNAc,0.037
same,glycan array binding signal (z-score),Gal6S(b1-4)GlcNAc6S,2.01
same,glycan array binding signal (z-score),GalNAc(a1-3)Gal,-0.007
same,glycan array binding signal (z-score),GalNAc(a1-3)GalNAc,0.94
same,glycan array binding signal (z-score),[15],-0.031
same,glycan array binding signal (z-score),[16],-0.318
